# Measured values taken from publication PMC4336329 (PLoS ONE, 2015).
# Screen size: about 310,000 compounds; about 14,000 (4.5%) showed an effect of 50% or more. The effect is printed as a negative number. Some of the results follow.
# Target: human ether-à-go-go-related gene (hERG) potassium channel (human, UniProt Q12809)
# Assay: primary screen, population patch clamp on CHO cells stably expressing hERG
# 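Note: peak tail current of the secondary pulse compared with the same well before compound.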
# Chain of human ether-à-go-go-related gene (hERG) potassium channel (Q12809 whole entry, looked up): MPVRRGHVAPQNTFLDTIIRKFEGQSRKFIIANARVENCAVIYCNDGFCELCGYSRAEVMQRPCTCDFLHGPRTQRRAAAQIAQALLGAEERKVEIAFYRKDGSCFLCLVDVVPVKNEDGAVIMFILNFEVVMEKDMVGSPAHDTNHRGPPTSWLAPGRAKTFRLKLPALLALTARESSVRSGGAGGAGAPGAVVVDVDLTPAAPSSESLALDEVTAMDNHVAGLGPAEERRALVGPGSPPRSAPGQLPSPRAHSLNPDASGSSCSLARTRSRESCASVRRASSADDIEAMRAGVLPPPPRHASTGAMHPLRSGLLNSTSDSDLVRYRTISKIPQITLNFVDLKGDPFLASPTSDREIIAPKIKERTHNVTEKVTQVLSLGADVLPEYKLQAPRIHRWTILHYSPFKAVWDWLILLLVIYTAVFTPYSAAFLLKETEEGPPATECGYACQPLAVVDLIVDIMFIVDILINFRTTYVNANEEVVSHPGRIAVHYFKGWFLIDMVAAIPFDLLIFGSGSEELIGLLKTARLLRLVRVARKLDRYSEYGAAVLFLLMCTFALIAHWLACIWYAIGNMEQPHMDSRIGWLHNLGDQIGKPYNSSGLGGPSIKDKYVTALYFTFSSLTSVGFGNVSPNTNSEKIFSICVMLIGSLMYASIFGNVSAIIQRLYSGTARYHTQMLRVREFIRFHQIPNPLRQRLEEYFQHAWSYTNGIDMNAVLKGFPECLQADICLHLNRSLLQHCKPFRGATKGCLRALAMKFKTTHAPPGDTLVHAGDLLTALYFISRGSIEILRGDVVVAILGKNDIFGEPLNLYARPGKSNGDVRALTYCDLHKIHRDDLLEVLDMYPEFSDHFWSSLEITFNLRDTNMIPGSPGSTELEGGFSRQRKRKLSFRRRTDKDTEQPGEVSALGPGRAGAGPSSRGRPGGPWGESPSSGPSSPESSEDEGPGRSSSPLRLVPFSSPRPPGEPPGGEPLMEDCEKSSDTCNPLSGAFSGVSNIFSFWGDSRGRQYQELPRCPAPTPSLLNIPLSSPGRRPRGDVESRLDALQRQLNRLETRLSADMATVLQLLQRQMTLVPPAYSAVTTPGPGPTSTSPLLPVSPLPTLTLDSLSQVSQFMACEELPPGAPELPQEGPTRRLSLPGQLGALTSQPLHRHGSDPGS
row,Compound,"hERG current change (%, negative = inhibition) at 10uM"
1,CN(CC(=O)Nc1ccc2c(c1)OCCO2)S(=O)(=O)c1ccc(F)cc1,-1.58%
2,Cc1cccc(C)c1NC(=O)CN.Cl,8.46%
3,Cc1ccc(NC(=O)COC(=O)CCc2nc3ccccc3c(=O)[nH]2)c(Br)c1,-0.374%
4,CCc1nc2cc(Cl)c(Cl)cc2nc1CC,13.5%
5,COc1nc(N(CC(N)=O)S(=O)(=O)c2ccccc2)nc(C)c1Cl,2.79%
6,OCC1(Cc2ccccc2F)CCCN(CC2CCCCC2)C1 (stereo not drawn),-37.7%
7,CN1C(=O)N(C)c2ccc(Br)c3cccc1c23,23.5%
8,CC(C)(C)NC(=O)NC(=O)COC(=O)Cc1c(F)cccc1Cl,-1.29%
9,COc1ccc(CCNCC(O)COc2c(C)cccc2C)cc1OC.O=C(O)C(=O)O (stereo not drawn),6.84%
10,CC1CCN(S(=O)(=O)c2ccc(C(=O)NNC(=O)C3CC3)cc2)CC1,3.28%
11,O=C(CNc1cccc(F)c1)N1CCc2ccccc2C1,-8.87%
12,Cc1cc(C)c(-c2c(O)c3cccnc3n(C)c2=O)c(C)c1,24.9%
13,COCCOC(=O)CC1=NC(=O)CS1,4.88%
14,CCC(C)(C)n1nnnc1C(c1cccc(C#N)c1)N1CCN(c2cccc(C)c2C)CC1 (stereo not drawn),12.6%
15,C=CCNC(=S)N/N=C(\C)c1ccc(OC)cc1,-3.74%
16,COc1ccc(Cl)cc1CSc1n[nH]c(C)n1,14.7%
17,Cn1c(SCC(=O)N2CCN(C(=O)c3ccco3)CC2)nnc1-c1ccc(NS(C)(=O)=O)cc1,17.4%
18,O=C(c1ccc(OC2CCN(Cc3ccccn3)CC2)cc1)N1CCCC(O)C1 (stereo not drawn),13.3%
19,COc1cccc(C2CC(C(F)(F)F)n3nc(C(=O)Nc4c(C)n(C)n(-c5ccccc5)c4=O)cc3N2)c1 (stereo not drawn),5.29%
20,O=C(CN(Cc1ccco1)C(=O)CNS(=O)(=O)c1ccccc1)NCc1ccc(F)cc1,-34.5%
21,Cc1onc(-c2c(Cl)cccc2Cl)c1C(=O)NC(C)(C)CO,-15.3%
22,Cc1cc2c(cc1S(=O)(=O)N1CCN(c3cccc(C)c3C)CC1)OCCN2C,-6.6%
23,COc1ccc(Cl)cc1N1CCN(CCNC(=O)Nc2ccccc2C)CC1,-40.1%

row,Compound,"hERG current change (%, negative = inhibition) at 10uM"
1,O=C1CC(c2ccsc2)Sc2ccccc2N1 (stereo not drawn),-30%
2,COc1ccc(/C=C2/C(=O)NC(=O)N(C3CCCCC3)C2=O)cc1CSc1ccccn1,12.4%
3,Cc1ccc(S(=O)(=O)N(CC(=O)Nc2cccnc2)c2cccc(Br)c2)cc1,-11.5%
4,CCNC(=S)N(Cc1ccco1)Cc1cc2cc3c(cc2[nH]c1=O)OCCO3,3.89%
5,COc1cc(Cl)c(C)cc1NC(=O)Cc1ccc(OC)c(OC)c1,-3.03%
6,O=C(NCCCN1CCOCC1)C(=O)N/N=C/c1ccccc1Cl,-4.55%
7,CC(=O)N/C(=C\c1ccc(F)cc1)C(=O)OCc1ccccc1,-19.2%
8,O=C(O)c1cccc(NS(=O)(=O)c2ccc(-c3ccc(S(=O)(=O)Nc4cccc(C(=O)O)c4)cc3)cc2)c1,35.7%
9,CN(CC(=O)Nc1ccc(Cl)c(C(F)(F)F)c1)C(=O)CCN1C(=O)C2CCCCC2C1=O (stereo not drawn),-50.2%
10,Cc1ccc(Cn2c(=O)c3ccccc3n3c(CCC(=O)O)nnc23)cc1,10.9%
11,O=C(Cn1ccc([N+](=O)[O-])n1)NCc1nc2ccccc2[nH]1,7.31%
12,O=C(NCCc1ccccc1)c1nccc2ccccc12,0.978%
13,O=C(Nc1ccc2[nH]ncc2c1)c1ccc(F)cc1,17%
14,Cc1sc(NC(=O)C2=COCCO2)c(C(N)=O)c1C,5.19%
15,CC(=O)Nc1cccc(C(=O)OC(C)C(=O)NC(=O)NC2CCCCC2)c1 (stereo not drawn),3.89%
16,COc1ccccc1-c1ccc(SCC(=O)N2CCOCC2)nn1,0.449%
17,Cc1ccc(OCC(=O)NC2CCS(=O)(=O)C2)c(C)c1 (stereo not drawn),14.6%
18,CN1CCS/C1=C/C=C1/SC(=S)N(Cc2ccccc2)C1=O,11.8%
19,Cc1ccc(N(CC(=O)NN=C2CCN(C)CC2)S(=O)(=O)c2ccc(C)cc2)cc1,-29.3%
20,COc1ccc(S(=O)(=O)N(C)c2ccc(C(=O)NCc3ccco3)cc2)cc1OC,-9.43%
21,Nc1ccccc1-c1nc2ccccc2s1,-8.03%
22,Cc1ccnc2nc(C(=O)Nc3nc4ccccc4s3)nn12,-15.8%
23,Cc1c(NC(=O)C2CCCN2S(=O)(=O)c2cccc3nsnc23)cccc1C(=O)O (stereo not drawn),2.61%

row,Compound,"hERG current change (%, negative = inhibition) at 10uM"
1,CCC(=O)C1CCCN(C(=O)c2ccc3nc(-c4cccc(OC)c4)oc3c2)C1 (stereo not drawn),-49.6%
2,COc1ccc(C2CC2/C(=N/O)c2ccccc2)cc1 (stereo not drawn),-6.52%
3,CC(=O)Nc1ccc(/C=N/NC(=O)c2cc(-c3ccco3)nc3ccccc23)cc1,2.09%
4,Cc1cc(OCC(=O)O/N=C(\N)c2ccccc2)cc(C)c1Cl,-1.68%
5,O=C(c1ccccc1)C1CCN(C(=O)c2ccco2)CC1,0.566%
6,COc1ccc(/C=C2\SC(=S)N(N3CCOCC3)C2=O)c(OC)c1,13.1%
7,COc1ccc(/C=C2\SC(=O)N(CC(=O)Nc3cccc(C)c3)C2=O)cc1O,2.9%
8,COc1ccc(OCCSc2nc3ccccc3n2CCC(=O)O)cc1,10.9%
9,OCC[C@H]1C[C@H](O)[C@@H](O)[C@@]2(Cc3ccccc3CO2)O1,12.7%
10,Cl.O=C(CCN1CCc2ccccc21)c1ccc2c(c1)OCCO2,9.22%
11,CC1=NN(C(C#N)c2ccccc2C)C(c2ccccc2)C1 (stereo not drawn),8.21%
12,COc1ccccc1N1CCN(C(=O)c2ccc3[nH]c4c(c3c2)CCCC4)CC1,10.5%
13,Cc1nn(C)cc1/C=N/NC(=O)c1sc2ccccc2c1Cl,-6.47%
14,COc1ccccc1/C=N/Nc1cc(N(C)C)nc(N(C)C)n1,-35.9%
15,CCCCCn1c(C)c2c(OCC)cccc(=O)c2c1C,-69%
16,Cc1nn(C)c(Oc2ccccc2)c1CCNS(=O)(=O)c1ccc(F)cc1,3.58%
17,CCCCC(CC)COC(=O)c1ccc(N(C)C)cc1 (stereo not drawn),3.95%
18,Cc1ccccc1C(O)(Cc1ccccc1)C1CN2CCC1CC2.Cl (stereo not drawn),-55.2%
19,COc1ccc(C(=O)NC2CCCc3ccccc32)cc1[N+](=O)[O-] (stereo not drawn),-42%
20,COc1ccc(-n2c(SCC(=O)Nc3nccs3)nnc2-c2ccccc2)cc1,-62.5%
21,CN(C)/C=C/C(=O)c1cc(N2CCOCC2)ccc1[N+](=O)[O-],6.97%
22,CCCC(=O)Nc1nnc(CC(=O)N2CCCC2)s1,7.72%
23,CCn1nnnc1SCC(=O)NCc1cccs1,9.02%

row,Compound,"hERG current change (%, negative = inhibition) at 10uM"
1,CC(C)CNS(=O)(=O)c1ccc(CCC(=O)NC2CCCC2)cc1,11.8%
2,CCOc1cc(C(=O)O/N=C(\N)c2ccc([N+](=O)[O-])cc2)cc(OCC)c1OCC,-16%
3,COc1ccc(Nc2nc(N)nc(CN3CCOCC3)n2)cc1,-5.46%
4,CCCCCC(=O)OCCc1c(C)nc2nc[nH]n2c1=O,7.43%
5,CCN1CCN(c2cc(C)c3cc(NC(=S)NCCN(C)C)ccc3n2)CC1,3.21%
6,Cc1ccc(-n2cc(-c3ccccc3)c3c(=O)[nH]cnc32)cc1,8.89%
7,CC(C)(C)NC(=O)c1ccc(NC(=O)c2ccccc2-c2ccccc2C(=O)O)cc1,25.2%
8,Cc1cc(C)c(C(=O)N(C)CC2CCCN(CCc3ccccc3F)C2)o1 (stereo not drawn),-70.4%
9,COc1ccccc1CCC(=O)NC1CCCN(c2ccc(C(F)(F)F)cn2)C1 (stereo not drawn),12.6%
10,CC(C(=O)Nc1ccccc1)N(C)CCOc1ccc(Br)cc1 (stereo not drawn),-33.4%
11,CCOC(=O)c1[nH]c(C)c(/C=N/O)c1C,1.76%
12,COCCOCC(O)CN1CCN(c2ccccc2)CC1.O=C(O)C(=O)O (stereo not drawn),-3.37%
13,COc1cc(OC)cc(-c2nc3nc(C)c(CCC(=O)O)c(C)n3n2)c1,-21.7%
14,COc1ccc(C(=O)NCC(=O)OCC(=O)N2CC(C)CC(C)C2)cc1 (stereo not drawn),6.86%
15,CN1c2ccccc2C(O)=C(C(=S)Nc2ccc(Cl)cc2)S1(=O)=O,-0.528%
16,Cc1ccccc1-c1nc2ccccc2c(=O)n1C1CCS(=O)(=O)C1 (stereo not drawn),-8.07%
17,CSc1ccc(C(=O)C2CCCN(C)C2)cc1 (stereo not drawn),-23.1%
18,CCOc1ccc(CCNC(=O)COC(=O)C2CCN(c3ccc(C(F)(F)F)cn3)CC2)cc1OCC,-10.9%
19,Cc1cc(OC(=O)c2ccccc2Cl)ccc1N1C(=O)CCC1=O,-1.98%
20,O=C1COc2ccc(C(=O)NCc3ccc4c(c3)OCO4)cc2N1,-26.5%
21,CC(C)NC(=O)c1cc2c(C(F)(F)F)nn(C)c2s1,19.9%
